# The list shows a part of the results. The main result of the screen is listed elsewhere. These columns were measured beside it and carry no call. Compounds called inactive in the main read-out are mostly missing here. The note in brackets gives the kind of curve behind each potency; many fits are weak.
# Experiment: Natriuretic polypeptide receptor (hNpr1) antagonism - Confirmation; note: nearly all actives have a fitted effect of over 70% in size
# Conditions: HEK293 hNpr1 cGMP GloSensor luminescence, ANP-stimulated; measured here: HEK-hNpr1 cytotoxicity, CellTiter-Glo
# How it was run: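 Compound (30 min, room temperature) preceded stimulation with hNppA peptide at 0.1 nM final for 20 min. Cells were HEK293 carrying hNpr1 plus GloSensor pGS-40F cGMP biosensor, pre-equilibrated 2 h with 2% substrate; cGMP was followed as luminescence pre- and post-agonist.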
# Tags give direction and shape of the fitted curve.
row,SMILES,CC50
1,CC(C)c1nncn1C1CCN(S(=O)(=O)c2cccc(Br)c2)CC1,"30.6 µM [falling, single point]"
2,COc1ccc(C(=O)N2CCC(Cc3nc(-c4ccc(F)cc4)no3)CC2)c(C)c1,"1.93 µM [falling, full curve]"
3,COc1ccc(NC(=O)Cn2c(N(C)Cc3ccccc3)nc(C)cc2=O)cc1Cl,"10.9 µM [falling, partial curve]"
4,CCc1ccc(C(=O)N2CCN(C(=O)c3nnn4c3COC(c3ccc(C)cc3)C4)CC2)cc1 (centres undefined),"19.3 µM [falling, partial curve]"
5,O=C(c1cccc(Cl)c1)N1CCN(C(=O)c2nnn3c2COC(c2ccc(F)cc2)C3)CC1 (centres undefined),"21.7 µM [falling, partial curve]"
6,CC1=NS(=O)(=O)N(C)C=C1C(=O)OCc1nc(-c2ccc(C(F)(F)F)cc2)no1,"17.2 µM [falling, partial curve]"
7,CC(C)c1noc(-c2cn(C3CCN(C(=O)c4ccc(Cl)s4)C3)nn2)n1 (centres undefined),"17.2 µM [falling, partial curve]"
8,CN(Cc1ccc(F)cc1)c1ccc2ncc(Nc3ccnc(N4CCOCC4)c3)n2n1,"25 µM [falling, partial curve]"
9,Cc1nc(N2CCC(C(=O)Nc3ccc(F)c(Cl)c3)CC2)cc(C(F)(F)F)n1,"24.3 µM [falling, partial curve]"
10,COc1ccc(S(=O)(=O)NC[C@H]2COCc3nc4cc(C)ccc4n32)cc1,"28 µM [falling, partial curve]"
11,O=C(Cc1ccc(Br)cc1)N1CCCN(c2cc(-c3ccc(F)cc3)[nH]n2)CC1,"30.6 µM [falling, single point]"
12,COc1ccc(CC(=O)N2CCC(Cc3nc(-c4ccc(F)cc4)no3)CC2)cc1,"7.69 µM [falling, full curve]"
13,COc1ccc([S+](=O)([O-])N2CCC3(CC2)OCCN(CC2CC2)C3=O)cc1,"28 µM [falling, partial curve]"
14,COc1ccc(CC(=O)NC2CCN(c3cc(-c4ccc(Cl)cc4)[nH]n3)C2)cc1OC (centres undefined),"19.3 µM [falling, partial curve]"
15,COc1cccc(-c2noc(CC3CCN(C(=O)c4ccc(OC)cc4C)CC3)n2)c1,"9.68 µM [falling, partial curve]"
16,Clc1cccc(-c2cnc([C@@H]3COCCN3Cc3cnc4ccccc4c3)[nH]2)c1,"39.6 µM [falling, partial curve]"
17,CC(C)c1ccc(CC(=O)N2CCCc3ncc(C(=O)N(C)c4ccccc4)cc32)cc1,"35.3 µM [falling, partial curve, poor fit]"
18,Cc1ccc2nc(C3CCN(Cc4ccc(C#N)cc4)CC3)[nH]c(=O)c2c1,"12.2 µM [falling, partial curve]"
19,CNc1nccc(N2CCC(CC(=O)N3CCN(c4ccccc4C)CC3)CC2)n1,"27.3 µM [falling, single point]"
20,COc1ccc(S(=O)(=O)N2CCc3c(C(=O)NCc4cccc(F)c4)cccc32)cc1,"21.7 µM [falling, partial curve]"

row,SMILES,CC50
1,CC1=NS(=O)(=O)N(C)C=C1C(=O)OCc1nc(-c2cccs2)no1,"38.5 µM [falling, single point]"
2,CN(Cc1ccnc2ccccc12)C(=O)c1cn(Cc2ccc(Cl)cc2)nn1,"17.2 µM [falling, partial curve]"
3,CC(C)NC(=O)N1CCNc2cnc(Nc3cccc(C(F)(F)F)c3)nc2C1,"25 µM [falling, partial curve]"
4,Cc1ccccc1-c1cnc2[nH]cc(CC(=O)N3CCCC3)c2c1,"19.8 µM [falling, partial curve]"
5,COc1ccc(CN2CC3(CCN(C(=O)c4cn[nH]c4-c4ccc(F)cc4)CC3)C2=O)cc1,"21.7 µM [falling, partial curve]"
6,O=C(c1ccc(F)cc1)N1CCC(Cc2nc(-c3ccccc3)no2)CC1,"6.11 µM [falling, full curve]"
7,COc1ccc(OCC2(C)COc3ccc(C(=O)Nc4ccccc4)cc3N2)cc1 (centres undefined),"62.7 µM [falling, single point]"
8,O=C1CCC2(CCN(c3nc4ccccc4s3)CC2)CN1Cc1cccnc1,"19.3 µM [falling, partial curve]"
9,CC1(CCCCc2ccccc2)COc2ccc(C(=O)N3CC(O)C3)cc2N1 (centres undefined),"31.4 µM [falling, partial curve]"
10,Cc1ccc(S(=O)(=O)N2CCc3c(C(=O)NCc4ccccn4)cccc32)cc1,"24.3 µM [falling, partial curve]"
11,CCn1nccc1C(=O)N1CCC(CCOc2ccc(F)cc2)C1 (centres undefined),"21.7 µM [falling, partial curve]"
12,O=C1c2c(nc(CNCc3cccc(Cl)c3)n2Cc2ccccc2)NCCN1CCOc1ccccc1,"43.2 µM [falling, single point]"
13,Cc1ccc(CN2CC(Oc3ccc(-c4noc(-c5cccnc5)n4)cc3)C2)o1,"21.7 µM [falling, partial curve]"
14,COc1ccc(OC)c(CNC(=O)c2ccc(-c3ccc(N4CCSCC4)nc3)cc2)c1,"6.85 µM [falling, full curve]"
15,Cc1noc(C)c1-c1cc2c(c(-c3ccc(F)c(Cl)c3)c1)C(=O)N(C)C2,"17.7 µM [falling, partial curve]"
16,Cc1oc(-c2ccccc2)nc1CN1CCCC(C(=O)NCCc2noc(-c3ccccc3)n2)C1 (centres undefined),"21.7 µM [falling, partial curve]"
17,COc1ccc(CN2C[C@H]3CN(Cc4ccc([N+](=O)[O-])cc4)CCN3C2=O)cc1,"19.8 µM [falling, partial curve]"
18,CC(C)c1cc(C(=O)NC2CCN(c3ncccc3C#N)CC2)n(C)n1,"7.69 µM [falling, partial curve]"
19,COCc1nc(-c2ccc(OC3CN(C(=O)NCc4ccc(OC)cc4)C3)cc2)no1,"19.3 µM [falling, partial curve]"

# Reference: PubChem BioAssay AID1347044 (National Center for Advancing Translational Sciences (NCATS), 2019)
